# Experimental data from PubChem BioAssay AID1347071 (National Center for Advancing Translational Sciences (NCATS), 2019).
# Among all 410,000 compounds or so, about 260 (0.063%) were called active. The shares of active, inactive and inconclusive entries below differ from those in the screen. Calls come from the whole dose curve; as a rule, active = well fitted activation curve with a large enough effect; inconclusive = small, poorly fitted or top-dose-only effect; inactive = no such curve, though single readings can be large or run the other way. Potencies of inconclusive entries are left out as doubtful fits.
# Test: qHTS for compounds that reverse cellular toxicity of Amyloid beta (A-beta) peptide in yeast: Primary Screen; note: nearly all actives have a fitted effect of over 55% in size
# Details: yeast expressing A-beta42, growth rescue, OD600, 48 h; growth rescue: at 46.1 µM (top of the series), 0% DMSO, 100% iron-clioquinol control
# Procedure, shortened: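 Growth rescue measured by 600 nm absorbance after 48 h yeast culture at 30 C with compound. Values normalized between DMSO and an equimolar ferric chloride plus clioquinol control.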
# Potency is the fitted concentration of half-maximal effect; tags give direction and shape of the fitted curve.
SMILES,Potency,growth rescue
O=C(NCc1cccs1)Nc1cccs1,inactive,–
CCN(C(=O)CCS(=O)(=O)c1ccc(Br)cc1)c1ccc2c(c1)OCO2,"inconclusive [activator, partial curve, poor fit]",–
CCc1ccc(NC(=O)C2CCN(S(C)(=O)=O)CC2)cc1,inactive,–
Cc1cccc(C)c1-n1nnnc1C(c1ccnc2ccccc12)N1CCN(C(=O)OCc2ccccc2)CC1 (stereo not drawn),inactive,–
O=[N+]([O-])c1ccc(CNc2ccc(Cl)cc2)s1,"inconclusive [activator, partial curve, poor fit]",–
Cc1cc(N/N=C/c2ccccc2[N+](=O)[O-])nc(-n2nc(C)cc2C)n1,"inconclusive [activator, single point]",–
O=C1[C@@H]2[C@@H]3C[C@@H]([C@H]4ON=C(c5ccc(Cl)cc5)[C@@H]34)[C@@H]2C(=O)N1C1CCCCC1,"inconclusive [activator, full curve]",–
COc1ccc(Cn2cccc(NC(=O)Nc3ccc(F)cc3)c2=O)cc1,"inconclusive [activator, partial curve, poor fit]",–
NCc1nc2cccnc2n1Cc1ccccc1Cl,inactive,–
NNC(=O)c1ccc(Cn2cccn2)o1,"inconclusive [activator, single point]",–
O=C(O)c1cc2cc(Oc3ccccc3)ccc2[nH]1,inactive,–
CC(C)=C1C2CCC1C1C(=O)N(c3nccs3)C(=O)C21 (stereo not drawn),"inconclusive [activator, partial curve, poor fit]",–
Fc1cc(NCc2ccccc2)nc(NCc2ccccc2)n1,"inconclusive [activator, partial curve, poor fit]",–
O=C(NC(=S)Nc1ccc(Cl)cc1Cl)C1CC1,"inconclusive [activator, full curve, poor fit]",–
O=C(C1CC(=O)N(C2CCCC2)C1)N1CCC(Cc2ccccc2)CC1 (stereo not drawn),–,inconclusive: -90.5% [activator]
Cc1cccc(NC(=S)NC(=O)c2ccc(Br)o2)c1,"inconclusive [activator, partial curve, poor fit]",–
Cc1ccc(C2C=CC(C#N)=CN2Cc2ccccc2)cc1 (stereo not drawn),inactive,–
Oc1ccccc1-c1cnc2cccnn12,inactive,–
C/C(=N\Nc1nccnc1Cl)c1ccc(O)cc1,inactive,–
Cc1ccc(NC(=S)N2CCCCCC2)c(C)c1,"inconclusive [activator, single point]",–
CC(C)CC1Nc2ncnc(N3CCCCC3)c2N(Cc2ccc(Br)cc2)C1=O (stereo not drawn),"inconclusive [activator, partial curve, poor fit]",–
O=C(CCS(=O)(=O)c1ccccc1Cl)NCCC1=CCCCC1,"inconclusive [activator, partial curve, poor fit]",–
O=C(NCc1ccc(Cl)cc1)c1cccc(NC(=O)c2ccccc2)c1,"inconclusive [activator, full curve]",–
Cc1ccc(NC(=O)Cc2ccc(Cl)c(Cl)c2)cc1S(=O)(=O)N(C)C,"inconclusive [activator, single point]",–
CCCOC(=O)c1ccc(NC(=O)c2cc(OC)c(OC)c(OC)c2Br)cc1,inactive,–

SMILES,Potency,growth rescue
CC(=O)Nc1ccc(Sc2ccc([N+](=O)[O-])o2)cc1,–,inconclusive: -82.6% [activator]
O=C(NCc1ccc2c(c1)OCO2)c1ccc(COc2cccc(Cl)c2)o1,"inconclusive [activator, partial curve, poor fit]",–
Cn1cc(C2CC(c3ccccc3)=NN2C(=O)c2ccccc2)c2ccccc21 (stereo not drawn),"inconclusive [activator, partial curve, poor fit]",–
O=C(OCN1C(=O)c2ccccc2C1=O)C1CCCCC1,"inconclusive [activator, single point]",–
COc1ccc(-n2ncc3c(N4CCN(c5cccc(C)c5)C(C)C4)ncnc32)cc1 (stereo not drawn),inactive,–
Clc1cccc(CNc2ncnc3c2nc2n3CCCC2)c1,"inconclusive [activator, single point]",–
CCOC(=O)c1ccc(NC(=S)NCc2ccc(F)cc2)cc1,"inconclusive [activator, single point]",–
CC(C)c1ccc(C(=O)CSc2n[nH]c(-c3ccncc3)n2)cc1,inactive,–
O=C(NCc1ccc(F)cc1)c1cccc2c1C(=O)c1ccc(N3CCC(Cc4ccccc4)CC3)cc1S2(=O)=O,inactive,–
CC(Oc1ccc(Br)cc1)c1nc2c3ccccc3nc(=S)n2[nH]1 (stereo not drawn),"inconclusive [activator, single point]",–
CC1Sc2ccc(S(=O)(=O)N3CCN(c4ccccc4)CC3)cc2NC1=O (stereo not drawn),inactive,–
O=c1c(Cl)cc(Cl)nn1-c1ccccc1,inactive,–
Cc1cccc(CN2CCN(C3CN(Cc4cn(Cc5ccc(Cl)cc5)nn4)S(=O)(=O)C3)CC2)c1 (stereo not drawn),inactive,–
O=C(O)CCCCc1nc2ccccc2s1,"inconclusive [activator, partial curve, poor fit]",–
COc1ccc(CC(=O)Nc2nc3c(s2)CC(C(C)(C)C)CC3)cc1 (stereo not drawn),"inconclusive [activator, single point]",–
Cn1cnnc1SC/C(O)=C(\C#N)c1nc2ccccc2[nH]1,inactive,–
COc1ccc(N)cc1C#N,inactive,–
Cc1ccc(C2N(c3cccc(Cl)c3)C(=O)N3CCCN23)cc1 (stereo not drawn),"inconclusive [activator, partial curve, poor fit]",–
CC(C)(C)NC(=O)C(c1ccc(C#N)cc1)n1c(=O)c(-c2cc3ccccc3[nH]2)nc2ccccc21 (stereo not drawn),"inconclusive [activator, partial curve]",–
COc1ccc(/C=N/Nc2nc(C)cc(-c3ccccc3)n2)cc1OC,"inconclusive [activator, single point]",–
O=C(CSc1nc(-c2cccs2)cc(C(F)(F)F)n1)Nc1cc(OCC(F)(F)F)cc([N+](=O)[O-])c1,"inconclusive [activator, full curve, poor fit]",–
S=C(NCCc1ccc(Cl)cc1)NCc1ccccc1,"inconclusive [activator, partial curve, poor fit]",–
Cc1cccc(NC(=O)c2cc(=O)c3ccccc3o2)n1,–,inconclusive: 32.2% [activator]
NC(=S)c1c(Cl)cc(C(F)(F)F)cc1Cl,"inconclusive [activator, single point]",–
CCOc1ccc(N2C(=O)CC(NNc3nc4ccccc4s3)C2=O)cc1 (stereo not drawn),"inconclusive [activator, partial curve, poor fit]",–

SMILES,Potency,growth rescue
Fc1ccc(NC(=S)Nc2cc(Cl)ccc2Cl)cc1,"inconclusive [activator, single point]",–
O=C(NC(=S)N1CCN(c2nc(-c3ccccc3)cs2)CC1)c1cccnc1,"inconclusive [activator, partial curve, poor fit]",–
O=C(Cc1ccccc1F)Nc1cc(S(=O)(=O)N2CCOCC2)ccc1N1CCCC1,inactive,–
CCc1ccc(N=c2c([N+](=O)[O-])nn(-c3ccc4c(c3)OCCO4)n2O)cc1,"inconclusive [activator, partial curve, poor fit]",–
CCCc1noc(-c2ccc(N3CCCCC3)c([N+](=O)[O-])c2)n1,inactive,–
CC(NC(=O)CCOc1ccccc1)c1ccccc1 (stereo not drawn),"inconclusive [activator, partial curve, poor fit]",–
CCc1nc2sc3ccccc3c(=O)c2c(=O)n1Cc1ccco1,inactive,–
CCc1cccc(NC(=O)Cn2cc3c(n2)CCCC3)c1,"inconclusive [activator, partial curve]",–
CC(O)(c1cccc(F)c1)c1nc(-c2ccccc2)cs1 (stereo not drawn),inactive,–
O=S(=O)(Nc1ccc(-c2csc(-c3ccccc3)n2)cc1)c1ccccc1,"inconclusive [activator, single point]",–
CCCC(=O)NC(c1ccccc1)c1ccc2cccnc2c1O (stereo not drawn),"inconclusive [activator, single point]",–
COc1ccc(Cl)cc1NC(=O)COC(=O)c1c(-c2ccccc2)noc1C,"inconclusive [activator, partial curve]",–
Cc1[nH][nH]c(=O)c1C(c1ccc(-c2ccc(F)cc2)o1)c1c(C)[nH][nH]c1=O,"inconclusive [activator, single point]",–
O=C(Cn1c(=O)n(-c2ccc(F)cc2)c(=O)c2sc3ccccc3c21)N1CCCC1,inactive,–
S=C(NCCCc1ccccc1)Nc1ccc(Br)cc1,"inconclusive [activator, single point]",–
COc1ccc(-c2csc(NC(=O)CSCC(=O)Nc3cc(C)on3)n2)cc1,inactive,–
COc1ccc2nc(N3CCCC3)[nH]c2c1,–,inconclusive: 26.5% [activator]
CCc1ccc(CN(C)C(=O)c2cc(COc3cncc(Cl)c3)on2)cc1,inactive,–
c1cc(SC2CCCCC2)cc(-c2nc3cnccn3c2NC2CCCCC2)c1,inactive,–
O=C(N/N=C/c1cc(Cl)ccc1O)c1ccccc1Br,"inconclusive [activator, single point]",–
C=CCNC(=S)NN=C1CCC(c2ccccc2)CC1 (stereo not drawn),"inconclusive [activator, single point]",–
CCS(=O)(=O)c1nc2ccccc2n1Cc1ccccc1Cl,inactive,–
C/C(=N/NC(=O)c1nnn(-c2nonc2N)c1COc1ccccc1)c1ccccc1Cl,"inconclusive [activator, single point]",–
